Laboratory results as given in PubChem BioAssay AID1347417 (National Center for Advancing Translational Sciences (NCATS), 2020).
About 5,300 (4.4%) of roughly 120,000 compounds were called active. Inconclusive means that the source gave no clear call. Such entries were picked first, then a sample of the others. Calls follow the shape of the dose curve; as a rule, active = well fitted inhibition curve with a large enough effect; inconclusive = small, poorly fitted or top-dose-only effect; inactive = no such curve, though single readings can be large or run the other way. Potencies of inconclusive entries are doubtful fits and often do not repeat.

Assay: qHTS Primary assay for Inhibitors of Plasmodium falciparum Dd2 growth in vitro; also: nearly all actives have a fitted effect of over 65% in size;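 as to activity, negative = inhibition: plate controls were DMSO vehicle for no effect and reference drug for full effect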
Details: P. falciparum Dd2 growth, SYBR Green, 72 h; activity, negative = inhibition: at 28.9 µM (top of the series) unless noted; series mostly up to 28.9 µM
In short: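 Readout: SYBR Green fluorescence, 485 nm excitation, 535 nm emission, after ~16 h lysis at 37C. Before that, Dd2-infected red cells (2.5% hematocrit) grew 72 h with compound, 29 uM top final concentration.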
Potency is read from the fitted curve at half-maximal effect; tags tell the direction and shape of the fitted curve.

Question: Which Potency does the source give for Cc1nnc(N2CCCC(C(=O)Nc3cc(F)ccc3F)C2)c2nn(-c3ccccc3)c(C)c12 (centres undefined) here?
Answer: inconclusive: 7.08 µM [inhibitor, partial curve, poor fit]

Question: Which Potency does the source give for CCn1nccc1C(=O)N1CCCC(c2nn(C)c(=O)n2C(C)C)C1 (centres undefined) here?
Answer: inactive

Question: For CC(C)CCNC(=O)CCc1nnc(-c2ccc(OC(C)C)cc2)[nH]c1=O, which Potency is on record?
Answer: inactive

Question: Which Potency does the source give for Cc1ccc2nc(CO[C@H]3CN(CC4CC4)C[C@H]3F)[nH]c2c1 here?
Answer: inconclusive: 11.2 µM [inhibitor, partial curve, poor fit]

Question: Which Potency does the source give for CC(C)NC(=O)N1CCC2(CC1)CC(N(Cc1ccc(F)cc1)C1CC1)CCO2 (centres undefined) here?
Answer: inconclusive: 17.8 µM [inhibitor, single point]

Question: With COCCC(=O)N1CCc2c(n(CCOc3ccccc3)n(-c3ccccc3)c2=O)C1 as the compound, how does the Potency read?
Answer: inactive

Question: For CCCN1CCN(c2ncnc3sc(C(=O)Nc4ccc(OC(F)(F)F)cc4)c(C)c23)CC1, which Potency is on record?
Answer: active: 5.01 µM

Question: With CCN1c2cc(C(=O)Nc3cc(C)cc(C)c3)ccc2C(=O)N2CCCC21 (centres undefined) as the compound, how does the Potency read?
Answer: inconclusive: 0.0891 µM [inhibitor, full curve, poor fit]

Question: With Cc1ccccc1N(C)C1CN(Cc2ccc(F)cc2)C1 as the compound, how does the Potency read?
Answer: inconclusive: 14.1 µM [inhibitor, partial curve, poor fit]

Question: Which Potency does the source give for COc1ccc(C(=O)N2CCC3(CC2)NC(=O)N(c2cccc(Cl)c2)N3)cc1 here?
Answer: inconclusive: 17.8 µM [inhibitor, single point]

Question: Which Potency does the source give for CCCCN1C(C(=O)c2ccccc2)=C(OC(=O)CC)c2ccccc2S1(=O)=O here?
Answer: inconclusive: 10 µM [inhibitor, single point]

Question: Which Potency does the source give for COc1cccc(CNC(=O)C2CCCN(c3nn4cc(-c5ccc(C)cc5)nc4s3)C2)c1 (centres undefined) here?
Answer: inconclusive: 17.8 µM [inhibitor, single point]

Question: Which Potency does the source give for Cc1ccccc1CN1C(=O)C(O)(c2c[nH]c3ccccc23)c2cc(Cl)ccc21 (centres undefined) here?
Answer: inconclusive: 17.8 µM [inhibitor, single point]

Question: For Cn1ncc2c(C(=O)NCc3ccc(F)cc3)cc(C(C)(C)C)nc21, which activity, negative = inhibition is on record?
Answer: inconclusive: -51.3% [inhibitor] [at 44.1 µM]

Question: With O=C(NC1CCN(c2cc(-c3ccc(Cl)cc3)[nH]n2)CC1)c1cccc(F)c1 as the compound, how does the Potency read?
Answer: inactive

Question: Which Potency does the source give for Cc1cccc(-n2c(/C=C/c3ccccc3O)nc3ccccc3c2=O)c1 here?
Answer: inconclusive: 17.8 µM [inhibitor, single point]

Question: Which Potency does the source give for O=C(c1ccc2c(c1)N(Cc1ccccc1)C(=O)c1ccccc1S2(=O)=O)N1CCC(Cc2ccccc2)CC1 here?
Answer: inconclusive: 2.82 µM [inhibitor, full curve, poor fit]

Question: For COCCn1cnnc1CN(C)c1cc(C2CC(O)C2)ncn1 (centres undefined), which Potency is on record?
Answer: inactive

Question: For CCN(CC)c1cc(NC2CCCCC2)c2c3c(onc13)-c1ccccc1C2=O, which Potency is on record?
Answer: inconclusive: 11.2 µM [inhibitor, single point]

Question: Which Potency does the source give for O=C1N(CCc2ccccc2)CCOC12CCN(Cc1ccc3cn[nH]c3c1)CC2 here?
Answer: inactive

Question: With CC(C)N(Cc1nccn1C)C(=O)CC(c1ccccc1)c1ccccc1F (centres undefined) as the compound, how does the Potency read?
Answer: inconclusive: 10 µM [inhibitor, single point]

Question: For CN(C)c1ccc(C(=O)N[C@H]2CO[C@H]3[C@@H]2OC[C@@H]3n2nnnc2Oc2cccc(N(C)C)c2)cc1, which Potency is on record?
Answer: inconclusive: 17.8 µM [inhibitor, single point]

Question: Which Potency does the source give for CC(C)(C)CN[C@@H]1CO[C@H](CNC(=O)c2ccccc2)[C@H]1O here?
Answer: inactive

Question: Which Potency does the source give for COc1ccc(C2C(C(=O)Nc3cccnc3)=C(C)Nc3nc(-c4ccc(OC)c(OC)c4)nn32)cc1 (centres undefined) here?
Answer: inconclusive: 11.2 µM [inhibitor, single point]

Question: For O=c1[nH]c2cc3c(cc2cc1CN1CC[C@H](O)C1)OCO3, which Potency is on record?
Answer: inactive

Question: With CCN(CC)CC(=O)N1CCC(C(=O)Nc2ccc(-c3nc4ccccc4o3)cc2)CC1 as the compound, how does the Potency read?
Answer: active: 10 µM

Question: Which Potency does the source give for COc1ccc(OC)c(NC(=O)c2ccc3c(c2)N(C)C2CCCCN2C3=O)c1 (centres undefined) here?
Answer: inconclusive: 2.51 µM [inhibitor, partial curve, poor fit]

Question: With Cn1ccnc1CN1CCOC[C@H](Oc2ccccc2)C1 as the compound, how does the Potency read?
Answer: inactive

Question: Which Potency does the source give for COCCN1Cc2ccc(Nc3ccc(OC)cc3)nc2C(C)(C(=O)Nc2ccccc2)C1 (centres undefined) here?
Answer: inconclusive: 1.26 µM [inhibitor, full curve]

Question: With O=S(=O)(c1ccc(F)cc1)N1CCCC(Cc2noc(-c3cccnc3)n2)C1 (centres undefined) as the compound, how does the Potency read?
Answer: inactive

Question: Which Potency does the source give for CNCC(=O)N1CCc2ncnc(N3CCSCC3)c2CC1 here?
Answer: inactive

Question: Which Potency does the source give for O=C1CO[C@H]2CCN(Cc3cccs3)CC[C@@H]2N1Cc1ccccc1 here?
Answer: inconclusive: 11.2 µM [inhibitor, partial curve, poor fit]

Question: Which Potency does the source give for CC(=O)c1ccc(NC(=O)N[C@H]2CO[C@H]3[C@@H]2OC[C@@H]3Nc2nccc(-c3ccco3)n2)cc1 here?
Answer: inactive

Question: Which Potency does the source give for O=C(C[C@@H]1CCNC[C@@H]1Cc1cc(-c2ccc(F)cc2)on1)Nc1nccs1 here?
Answer: inconclusive: 22.4 µM [inhibitor, single point]

Question: With O=C(c1ccc(C(F)(F)F)cc1)N1CCC2(CC(c3cccc(C(F)(F)F)c3)=NO2)C1 (centres undefined) as the compound, how does the Potency read?
Answer: inconclusive: 2 µM [inhibitor, partial curve, poor fit]

Question: With Cc1ccc(-n2cccc2CC(=O)N2CCN(C3CCN(C)CC3)CC2)cc1 as the compound, how does the Potency read?
Answer: inconclusive: 17.8 µM [inhibitor, single point]

Question: For COCCNC(=O)c1ccc2c(c1)N(C)C(CC(=O)NCC(C)(C)C)CO2 (centres undefined), which Potency is on record?
Answer: inactive

Question: Which Potency does the source give for COc1cccc(CNC(=O)C2CN(S(=O)(=O)c3cccnc3)CC23CCCCC3)c1 (centres undefined) here?
Answer: inconclusive: 4.47 µM [inhibitor, partial curve]

Question: Which Potency does the source give for COc1ccc(-c2nc(CSCC(=O)NCCc3ccc(OC)c(OC)c3)c(C)o2)cc1 here?
Answer: inconclusive: 17.8 µM [inhibitor, single point]

Question: Which Potency does the source give for Cc1sc(NC(=O)C2c3ccccc3Oc3ccccc32)c(C(=O)OC(C)C)c1C here?
Answer: inconclusive: 17.8 µM [inhibitor, single point]

Question: For CN1C[C@@H](NS(=O)(=O)c2ccccc2)C[C@H]1c1nc(-c2ccccn2)no1, which Potency is on record?
Answer: inconclusive: 28.2 µM [inhibitor, single point]

Question: With O=C(NCc1ccco1)N[C@@H]1[C@@H](Cc2ccccc2)[C@H]2OCC[C@@H]12 as the compound, how does the Potency read?
Answer: inactive

Question: With COc1ccc(OCC2(C)COc3ccc(C(=O)Nc4ccc(OC)nc4)cc3N2)cc1 (centres undefined) as the compound, how does the Potency read?
Answer: inconclusive: 31.6 µM [inhibitor, single point]

Question: Which Potency does the source give for N#Cc1ccc(CNC(=O)[C@@H]2Cc3nc[nH]c3CN2CC2CCCCC2)cc1 here?
Answer: inconclusive: 10 µM [inhibitor, partial curve, poor fit]

Question: With Cc1nc(-c2ccccc2)sc1-c1ccc(SCC(=O)Nc2ccccc2)nn1 as the compound, how does the Potency read?
Answer: inconclusive: 17.8 µM [inhibitor, single point]

Question: Which Potency does the source give for Cc1ccc(NC(=O)c2ccc(F)c(S(=O)(=O)NCCc3ccccc3)c2)cc1F here?
Answer: inconclusive: 14.1 µM [inhibitor, single point]

Question: Which Potency does the source give for O=C(NCCN1CCCC1)c1cnc2c(c1)N(C(=O)Cc1cccc(C(F)(F)F)c1)CCC2 here?
Answer: inconclusive: 4.47 µM [inhibitor, partial curve, poor fit]

Question: Which Potency does the source give for COCC(=O)NC1CCC12CCN(Cc1cccc(OC)c1)CC2 (centres undefined) here?
Answer: inactive

Question: For O=C(CS(=O)(=O)c1nc(-c2ccc(Cl)cc2)cn1-c1ccccc1)Nc1cccc(Cl)c1, which Potency is on record?
Answer: inconclusive: 17.8 µM [inhibitor, single point]

Question: For CCS(=O)(=O)N1CCC2(CC1)c1[nH]c3ccccc3c1CCN2C, which Potency is on record?
Answer: inconclusive: 8.91 µM [inhibitor, partial curve]

Question: With CCC(CC)C(=O)N1CCc2cc(OC)c(OC)cc2C1COc1ccc2c(C)cc(=O)oc2c1 (centres undefined) as the compound, how does the Potency read?
Answer: inconclusive: 5.62 µM [inhibitor, partial curve]

Question: Which Potency does the source give for CCOc1ccc2nc(N(Cc3cccnc3)C(=O)c3ccco3)sc2c1 here?
Answer: inconclusive: 12.6 µM [inhibitor, single point]

Question: Which Potency does the source give for CN(c1ccccc1)c1ccc2nnc(-c3ccc(F)cn3)n2n1 here?
Answer: inconclusive: 2.51 µM [inhibitor, full curve]

Question: With O=C(NCc1ccccc1Cl)C(=O)NCC(c1ccc2c(c1)OCO2)N1CCOCC1 (centres undefined) as the compound, how does the Potency read?
Answer: inactive

Question: With Nc1nc(C2CC(NC(=O)c3cnn(Cc4ccccc4)c3)C2)cc(=O)[nH]1 (centres undefined) as the compound, how does the Potency read?
Answer: inactive

Question: With CCCN1C(CC(C)C)=NS(=O)(=O)c2cc(NC(=O)C(C)C)ccc21 as the compound, how does the Potency read?
Answer: inconclusive: 2.51 µM [inhibitor, partial curve, poor fit]

Question: For COc1ccc2c(c1)c(=O)c(S(=O)(=O)c1ccc(F)cc1)cn2CC(=O)Nc1ccc(C)cc1C, which Potency is on record?
Answer: inconclusive: 0.199 µM [inhibitor, full curve, poor fit]

Question: Which Potency does the source give for Cc1cccc(-c2cc(C3CCN(S(=O)(=O)c4cccc(C#N)c4)CC3)[nH]n2)c1 here?
Answer: inconclusive: 0.178 µM [inhibitor, full curve, poor fit]

Question: Which activity, negative = inhibition does the source give for COc1nccnc1NC1CCN(S(=O)(=O)c2cnc[nH]2)CC1 here?
Answer: inactive: 114% [at 5.79 µM]

Question: With Cc1nn2c(c1-c1ccccc1C(C)C)N(CCC(C)C)CCC2 as the compound, how does the Potency read?
Answer: inconclusive: 0.316 µM [inhibitor, full curve, poor fit]

Question: Which Potency does the source give for C[S+](=O)([O-])N1Cc2ccccc2CC2(CCCN(CC3CCCCC3)C2)C1 (centres undefined) here?
Answer: inconclusive: 5.01 µM [inhibitor, partial curve]

Question: Which Potency does the source give for O=C([C@@H]1C[C@H](F)CN1C(=O)NC1CCCC1)N1CCc2ccccc2C1 here?
Answer: inactive

Question: For CC(C)C(=O)N1Cc2ccccc2CC2(CCCCN2Cc2cccnc2)C1 (centres undefined), which Potency is on record?
Answer: active: 12.6 µM

Question: With COc1ccc(CN2CCC[C@H]2c2nc(-c3cncnc3N)no2)c(O)c1 as the compound, how does the Potency read?
Answer: inconclusive: 25.1 µM [inhibitor, single point]
